# Test results as given in the supplement of paper PMC4604168 (melanoma cell lines).
# The other results are listed elsewhere or left out. Repeats are few or missing, and single values can be far off.
# Tested on: IST-MEL1
# Experiment: cell count relative to DMSO control; melanoma cells; higher = more viable cells
# Conditions: library dose: standard library concentration; 72 h
# 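Further: cells treated in 1,536-well plates, then fixed and DAPI-stained, with nuclei counted from automated high-throughput microscope images.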
row,Structure (SMILES),cell count [%]
1,"COc1ccc(-c2ccc3c(N4CCOCC4)nc(N4C[C@@H](C)O[C@@H](C)C4)nc3n2)cc1CO + Oc1nc(-c2ccc(C(F)(F)F)cc2)nc2c1CSCC2 [XAV939] (first compound 0.1 µM, partner dose 10 µM)",91.4
2,"COc1ccc(-c2ccc3c(N4CCOCC4)nc(N4C[C@@H](C)O[C@@H](C)C4)nc3n2)cc1CO + O=C1NC(=O)/C(=C/c2ccc(-c3ccc(F)cc3O)o2)S1 [AS252424] (first compound 0.1 µM, partner dose 5 µM)",90
3,"COC(=O)c1sccc1S(=O)(=O)Nc1ccc(Nc2ccccc2)cc1OC + Cc1cc([N+](=O)[O-])ccc1NS(=O)(=O)c1cc(Cl)ccc1Cl [FH535] (first compound 5 µM, partner dose 5 µM)",62
4,"CCN(CC)CCCCNc1ncc2cc(-c3cc(OC)cc(OC)c3)c(NC(=O)NC(C)(C)C)nc2n1 + Cn1cc(/C=C2\C(=O)Nc3cccnc32)c2ccccc21 [GW441756] (first compound 0.5 µM, partner dose 2 µM)",107
5,"CCN(CC)CCCCNc1ncc2cc(-c3cc(OC)cc(OC)c3)c(NC(=O)NC(C)(C)C)nc2n1 + c1cc(-c2cnn3cc(-c4ccc(OCCN5CCCCC5)cc4)cnc23)ccn1 [Dorsomorphin] (first compound 0.5 µM, partner dose 2 µM)",91.5
6,"CCN(CC)CCCCNc1ncc2cc(-c3cc(OC)cc(OC)c3)c(NC(=O)NC(C)(C)C)nc2n1 + O=C(O)C(=O)Nc1sc2c(c1C(=O)O)CCNC2 [TCS401] (first compound 0.5 µM, partner dose 8.33333 µM)",112
7,"COc1ccc(COc2ccc(Cc3cnc(N)nc3N)cc2OC)cc1 + O=S(=O)(c1ccccc1)N(CC(F)(F)F)c1ccc(C(O)(C(F)(F)F)C(F)(F)F)cc1 [T0901317] (first compound 5 µM, partner dose 7 µM)",92.1
8,"O=S(=O)(c1ccccc1)N(CC(F)(F)F)c1ccc(C(O)(C(F)(F)F)C(F)(F)F)cc1 + Cn1cc(/C=C2\C(=O)Nc3cccnc32)c2ccccc21 [GW441756] (first compound 7 µM, partner dose 2 µM)",101
9,"Cn1cc(/C=C2\C(=O)Nc3cccnc32)c2ccccc21 + CC(C)CCN1c2nc(Nc3cc(F)c(O)c(F)c3)ncc2N(C)C(=O)C1C [BID1870] (first compound 2 µM, partner dose 1 µM)",89.9
10,"COC(=O)c1sccc1S(=O)(=O)Nc1ccc(Nc2ccccc2)cc1OC + COc1cc2ncnc(Nc3ccc(Oc4ccccc4)cc3)c2cc1OC [SrcI1] (first compound 5 µM, partner dose 10 µM)",113
11,"O=S(=O)(c1ccccc1)N(CC(F)(F)F)c1ccc(C(O)(C(F)(F)F)C(F)(F)F)cc1 + CCCCCCCCCCCC1=C(O)C(=O)C=C(O)C1=O [Embelin] (first compound 7 µM, partner dose 6 µM)",70.5
12,"N#Cc1c(O)c2c(-c3ccc(-c4ccccc4O)cc3)csc2[nH]c1=O + COc1ccc(-c2ccc3c(N4CCOCC4)nc(N4C[C@@H](C)O[C@@H](C)C4)nc3n2)cc1CO [KU0063794] (first compound 10 µM, partner dose 0.1 µM)",80.4
13,"COc1ccc2c(c1)CCC1C2CCC2(C)C(NCCCCCCN3C(=O)C=CC3=O)CCC12 (stereo unspecified) + CC(C)CCN1c2nc(Nc3cc(F)c(O)c(F)c3)ncc2N(C)C(=O)C1C [BID1870] (first compound 2 µM, partner dose 1 µM)",84.9
14,"Oc1cc(-c2nc(-c3ccccc3)[nH]c2-c2ccncc2)ccc1Cl + O=C1NC(=O)/C(=C/c2ccc(-c3ccc(F)cc3O)o2)S1 [AS252424] (first compound 1 µM, partner dose 5 µM)",90
15,"COc1ccc2c(c1)CCC1C2CCC2(C)C(NCCCCCCN3C(=O)C=CC3=O)CCC12 (stereo unspecified) + c1cc(-c2cnn3cc(-c4ccc(OCCN5CCCCC5)cc4)cnc23)ccn1 [Dorsomorphin] (first compound 2 µM, partner dose 2 µM)",94.9
16,"Cn1cc(/C=C2\C(=O)Nc3cccnc32)c2ccccc21 + O=c1cc(-c2cccc3c2Sc2ccccc2S3)oc(N2CCOCC2)c1 [KU55933] (first compound 2 µM, partner dose 5 µM)",91.8
